Reference: article PMC10651785 (Blood, 2022)

Molecular target: the molecule itself
Test: FRET or BRET

B1: NLuc–STAT3–FlAsH (NSF) Y640F (natural protein)
chain: not shown
modifications: FlAsH (fluorescein arsenical short hairpin) probe on the tetracysteine motif
- reduction in the ability to form homodimers (BRET) compared with WT: ~50%

B2: NLuc–STAT3–FlAsH (NSF) K658Y (natural protein)
chain: not shown
modifications: FlAsH (fluorescein arsenical short hairpin) probe on the tetracysteine motif
- reduction in the ability to form homodimers (BRET) compared with WT: ~50%
